Laboratory results published in patent US20190275012A9, “SUBSTITUTED THIAZOLO-PYRIDINE COMPOUNDS AS MALT1 INHIBITORS” (Lupin Limited, priority 2016, published 2019).
pIC50: −log10 of the molar value. Some of these results come from one statement about several compounds together.

system: OCI-Ly-10 cells; assay: Anticancer assay (14 days), cell viability by CCK-8; format: cell-based; settings: 14 days treatment, fresh treatment every 5th day, CCK-8 viability, read-out: Ly-10 (14d) inhibition IC50
Method: OCI-Ly-10 cells (UHN, Canada) seeded in culture media (IMDM+20% FBS) in 96-well plates were treated with various concentrations of the test compounds. Cells were treated for a period of 14 days (13-15 days depending on the confluency of cells) with fresh treatments every 5th day. After the first treatment, for all subsequent treatments, the cells were centrifuged, the spent media was removed and fresh media containing the test compound was added. Cell viability was assessed using CCK-8 kit (Dojindo Laboratories, China) as per manufacturer's instructions. Plates were read in colorimeter and absorbance was detected. (Detection at 450 nm; Background correction at 650 nm). % inhibition was calculated relative to the samples containing media with 0.1% DMSO alone as per the following formula

Row | Compound | pIC50
1 | COc1nc(-n2nccn2)c(Cl)cc1NC(=O)Nc1cnc2sc(C)nc2c1C(C)OC (single isomer, unassigned) [Compound 90a, 1-(5-Chloro-2-methoxy-6-(2H-1,2,3-triazol-2-yl)pyridin-3-yl)-3-(7-(1-methoxyethyl)-2-methylthiazolo[5,4-b]pyridin-6-yl)urea] | 6.60 to 7.00
2 | CCC(c1c(NC(=O)Nc2cnc(-n3nccn3)c(Cl)c2)cnc2sc(C)nc12)N(C)C (single isomer, unassigned) [Compound 227a, 1-(5-Chloro-6-(2H-1,2,3-triazol-2-yl)pyridin-3-yl)-3-(7-(1-(dimethylamino)propyl)-2-methylthiazolo[5,4-b]pyridin-6-yl)urea] | 6.30 to 6.60
3 | COc1nc(-n2nccn2)c(Cl)cc1NC(=O)Nc1cnc2sc(C)nc2c1C(OC)C1CC1 (single isomer, unassigned) [Compound 156a, 1-(5-Chloro-2-methoxy-6-(2H-1,2,3-triazol-2-yl)pyridin-3-yl)-3-(7-(cyclopropyl(methoxy)methyl)-2-methylthiazolo[5,4-b]pyridin-6-yl)urea] | 7.00 to 7.59
4 | COc1nc(-n2nccn2)c(C(F)(F)F)cc1NC(=O)Nc1cnc2sc(C)nc2c1C(OC)C1CC1 (single isomer, unassigned) [Compound 155a, 1-(7-(Cyclopropyl(methoxy)methyl)-2-methylthiazolo[5,4-b]pyridin-6-yl)-3-(2-methoxy-6-(2H-1,2,3-triazol-2-yl)-5-(trifluoromethyl)pyridin-3-yl)urea] | 7.00 to 7.59
5 | CCC(c1c(NC(=O)Nc2cnc(-n3nccn3)c(Cl)c2)cnc2sc(C)nc12)N(C)C (single isomer, unassigned) [Compound 227b, 1-(5-Chloro-6-(2H-1,2,3-triazol-2-yl)pyridin-3-yl)-3-(7-(1-(dimethylamino)propyl)-2-methylthiazolo[5,4-b]pyridin-6-yl)urea] | 7.00 to 7.59

system: NF-kB transcriptional activity in HEK-293-NF-kB-Luc cell line overexpressing MALT1; assay: NF-kB reporter assay (luciferase, MALT1 stably overexpressed); format: cell-based, human; settings: HEK-293-NF-kB-Luc cells stably overexpressing MALT1, 24 h treatment, Bright Glo luminescence; read-out: NF-kB inhibition IC50
Method: The NF-⇐B reporter assay was performed to screen for MALT1 inhibition mediated reduction in the NF-⇐B transcriptional activity. For this purpose, MALT1 was stably overexpressed in HEK-293—NF-⇐B-Luc cell line. Cells were seeded in poly-D-lysine coated 96-well plates in a culture medium containing the selection markers (DMEM+10% FBS+50 |g/ml Hygromycin+500 |g/ml Geniticin) and allowed to adhere overnight. On the following day, cells were treated with various concentrations of test compounds for 24 h. After 24 h of treatment with test compounds, media was removed from each well and Bright Glo™ (Promega, USA) substrate was added and incubated for further 10 min at ambient temperature. Luminescence was measured for detection of NF-⇐B reporter activity. RLUs (Relative Luminescence Units) were directly proportional to the NF-⇐B activity. % inhibition of NF-⇐B activity was calculated relative to the samples containing media with 0.1% DMSO alone as per the following formula

Row | Compound | pIC50
6 | COC(c1c(NC(=O)Nc2cnc(-n3nccn3)c(C(F)(F)F)c2)cnc2sc(C)nc12)C1CC1 (single isomer, unassigned) [Compound 151b, 1-(6-(2H-1,2,3-Triazol-2-yl)-5-(trifluoromethyl)pyridin-3-yl)-3-(7-(cyclopropyl(methoxy)methyl)-2-methylthiazolo[5,4-b]pyridin-6-yl)urea] | 7.00 to 9.00
7 | COC(C)c1c(NC(=O)Nc2cnc(-n3cccn3)c(Cl)c2)cnc2sc(C)nc12 (single isomer, unassigned) [Compound 196a, (R) or (S)-1-(5-chloro-6-(1H-pyrazol-1-yl)pyridin-3-yl)-3-(7-(1-methoxyethyl)-2-methylthiazolo[5,4-b]pyridin-6-yl)urea] | 6.30 to 7.00
8 | COC(C)c1c(NC(=O)Nc2ccc(-n3cccn3)c(Cl)c2)cnc2sc(C)nc12 (single isomer, unassigned) [Compound 201b, (S) or (R)-1-(3-Chloro-4-(1H-pyrazol-1-yl)phenyl)-3-(7-(1-methoxyethyl)-2-methylthiazolo[5,4-b]pyridin-6-yl)urea] | 7.00 to 9.00
9 | COc1nc(-n2cccn2)c(Cl)cc1NC(=O)Nc1cnc2sc(C)nc2c1C(C)OC (single isomer, unassigned) [Compound 209b, (S) or (R)-1-(5-Chloro-2-methoxy-6-(1H-pyrazol-1-yl)pyridin-3-yl)-3-(7-(1-methoxyethyl)-2-methylthiazolo[5,4-b]pyridin-6-yl)urea] | 7.00 to 9.00
10 | COC(C)c1c(NC(=O)Nc2cnc(-n3nccn3)c(C#N)c2)cnc2sc(C)nc12 (single isomer, unassigned) [Compound 200a, (R) or (S)-1-(5-Cyano-6-(2H-1,2,3-triazol-2-yl)pyridin-3-yl)-3-(7-(1-methoxyethyl)-2-methylthiazolo[5,4-b]pyridin-6-yl)urea] | 6.30 to 7.00
11 | COc1cc(-n2nccn2)c(Cl)cc1NC(=O)Nc1cnc2sc(C)nc2c1C(C)OC (single isomer, unassigned) [Compound 131b, 1-(5-Chloro-2-methoxy-4-(2H-1,2,3-triazol-2-yl)phenyl)-3-(7-(1-methoxyethyl)-2-methylthiazolo[5,4-b]pyridin-6-yl)urea] | 7.00 to 9.00
12 | COC(c1c(NC(=O)Nc2cnc(-n3nccn3)c(C(F)(F)F)c2)cnc2sc(C)nc12)C1CC1 (single isomer, unassigned) [Compound 151a, 1-(6-(2H-1,2,3-Triazol-2-yl)-5-(trifluoromethyl)pyridin-3-yl)-3-(7-(cyclopropyl(methoxy)methyl)-2-methylthiazolo[5,4-b]pyridin-6-yl)urea] | 6.30 to 7.00
13 | COC(C)c1c(NC(=O)Nc2ccc(-n3cccn3)c(Cl)c2)cnc2sc(C)nc12 (single isomer, unassigned) [Compound 201a, (R) or (S)-1-(3-Chloro-4-(1H-pyrazol-1-yl)phenyl)-3-(7-(1-methoxyethyl)-2-methylthiazolo[5,4-b]pyridin-6-yl)urea] | 5.82 to 6.30
14 | COc1ncc(NC(=O)Nc2cnc3sc(C)nc3c2C(OC)C(C)C)cc1Cl (single isomer, unassigned) [Compound 124b, 1-(5-Chloro-6-methoxypyridin-3-yl)-3-(7-(1-methoxy-2-methylpropyl)-2-methylthiazolo[5,4-b]pyridin-6-yl)urea] | 7.00 to 9.00
15 | COc1nc(OC)c(NC(=O)Nc2cnc3sc(C)nc3c2C(C)OC)cc1Cl (single isomer, unassigned) [Compound 122b, 1-(5-Chloro-2,6-dimethoxypyridin-3-yl)-3-(7-(1-methoxyethyl)-2-methylthiazolo[5,4-b]pyridin-6-yl)urea] | 7.00 to 9.00
16 | 1-(6-(2H-1,2,3-Triazol-2-yl)-5-(trifluoromethyl)pyridin-3-yl)-3-(7-(1-methoxyl-methylpropyl)-2-methylthiazolo[5,4-b]pyridin-6-yl)urea [Compound 78a] | 6.30 to 7.00
17 | COc1cc(-n2nccn2)c(Cl)cc1NC(=O)Nc1cnc2sc(C)nc2c1C(C)OC (single isomer, unassigned) [Compound 131a, 1-(5-Chloro-2-methoxy-4-(2H-1,2,3-triazol-2-yl)phenyl)-3-(7-(1-methoxyethyl)-2-methylthiazolo[5,4-b]pyridin-6-yl)urea] | 6.30 to 7.00
18 | COc1nc(-n2cccn2)c(Cl)cc1NC(=O)Nc1cnc2sc(C)nc2c1C(C)OC (single isomer, unassigned) [Compound 209a, (R) or (S)-1-(5-Chloro-2-methoxy-6-(1H-pyrazol-1-yl)pyridin-3-yl)-3-(7-(1-methoxyethyl)-2-methylthiazolo[5,4-b]pyridin-6-yl)urea] | 6.30 to 7.00
19 | COC(C)c1c(NC(=O)Nc2ccc(-n3nccn3)c(C#N)c2)cnc2sc(C)nc12 (single isomer, unassigned) [Compound 208a, (R) or (S)-1-(3-Cyano-4-(2H-1,2,3-triazol-2-yl)phenyl)-3-(7-(1-methoxyethyl)-2-methylthiazolo[5,4-b]pyridin-6-yl)urea] | 6.30 to 7.00
20 | COc1ncc(NC(=O)Nc2cnc3sc(C)nc3c2C(OC)C(C)C)cc1Cl (single isomer, unassigned) [Compound 124a, 1-(5-Chloro-6-methoxypyridin-3-yl)-3-(7-(1-methoxy-2-methylpropyl)-2-methylthiazolo[5,4-b]pyridin-6-yl)urea] | 6.30 to 7.00
21 | COc1ncc(NC(=O)Nc2cnc3sc(C)nc3c2C(C)OC)cc1Cl (single isomer, unassigned) [Compound 159a, 1-(5-Chloro-6-methoxypyridin-3-yl)-3-(7-(1-methoxyethyl)-2-methylthiazolo[5,4-b]pyridin-6-yl)urea] | 7.00 to 9.00
22 | COC(C)c1c(NC(=O)Nc2cnc(-n3cccn3)c(Cl)c2)cnc2sc(C)nc12 (single isomer, unassigned) [Compound 196b, (S) or (R)-1-(5-chloro-6-(1H-pyrazol-1-yl)pyridin-3-yl)-3-(7-(1-methoxyethyl)-2-methylthiazolo[5,4-b]pyridin-6-yl)urea] | 7.00 to 9.00
23 | COc1nc(OC)c(NC(=O)Nc2cnc3sc(C)nc3c2C(C)OC)cc1Cl (single isomer, unassigned) [Compound 122a, 1-(5-Chloro-2,6-dimethoxypyridin-3-yl)-3-(7-(1-methoxyethyl)-2-methylthiazolo[5,4-b]pyridin-6-yl)urea] | 6.30 to 7.00
24 | COC(C)c1c(NC(=O)Nc2cnc(-n3nccn3)c(C#N)c2)cnc2sc(C)nc12 (single isomer, unassigned) [Compound 200b, (S) or (R)-1-(5-Cyano-6-(2H-1,2,3-triazol-2-yl)pyridin-3-yl)-3-(7-(1-methoxyethyl)-2-methylthiazolo[5,4-b]pyridin-6-yl)urea] | 7.00 to 9.00
25 | COC(C)c1c(NC(=O)Nc2ccc(-n3nccn3)c(C#N)c2)cnc2sc(C)nc12 (single isomer, unassigned) [Compound 208b, (S) or (R)-1-(3-Cyano-4-(2H-1,2,3-triazol-2-yl)phenyl)-3-(7-(1-methoxyethyl)-2-methylthiazolo[5,4-b]pyridin-6-yl)urea] | 7.00 to 9.00
